Test results taken from PubChem BioAssay AID624417 (National Center for Advancing Translational Sciences (NCATS), 2012).
Among all 410,000 compounds or so, about 6,400 (1.6%) were called active. Inconclusive means that the source gave no clear call. Such entries were picked first, then a sample of the others. The call rests on the fitted dose curve; in most records, active means well fitted inhibition curve with a large enough effect; inconclusive means small, poorly fitted or top-dose-only effect; inactive means no such curve, though single readings can be large or run the other way. No potency is given beside an inconclusive call; the fits are too rough.

Target: Glucagon-like peptide 1 receptor (Homo sapiens) (UniProt P43220)
Test: qHTS of GLP-1 Receptor Inverse Agonists (Inhibition Mode); further: nearly all actives have a fitted effect of over 55% in size
Conditions: HEK293 GLP-1R CRE-luciferase, luminescence, 24 h, GLP-1R form is constitutively active; series mostly up to 38.3 µM
In short: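 Seeding at 200 cells/uL, 12 h culture, 24 hr compound treatment, then luciferase reagent and a luminescence read; cells are HEK293 stably expressing a constitutively active GLP-1R plus cAMP-responsive luciferase.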
Potency means the concentration at half of the fitted maximal effect; tags describe the fitted curve by direction and shape.

UniProt P43220, sequence (P43220 whole entry, looked up): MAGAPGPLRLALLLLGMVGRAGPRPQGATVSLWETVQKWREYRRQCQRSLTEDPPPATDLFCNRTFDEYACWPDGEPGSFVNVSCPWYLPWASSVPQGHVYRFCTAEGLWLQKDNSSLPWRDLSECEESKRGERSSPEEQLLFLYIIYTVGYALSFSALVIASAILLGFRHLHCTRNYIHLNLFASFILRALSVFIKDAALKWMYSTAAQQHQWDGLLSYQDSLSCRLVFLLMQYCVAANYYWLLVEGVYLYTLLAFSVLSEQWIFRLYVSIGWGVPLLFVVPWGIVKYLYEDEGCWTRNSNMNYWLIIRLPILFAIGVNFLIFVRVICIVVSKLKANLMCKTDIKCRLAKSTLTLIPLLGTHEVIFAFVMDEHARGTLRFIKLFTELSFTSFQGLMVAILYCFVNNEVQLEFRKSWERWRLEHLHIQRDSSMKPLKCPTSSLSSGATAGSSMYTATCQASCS

Row | Structure (SMILES) | Potency
1 | Cc1ccc(S(=O)(=O)N2CCC[C@H]2C(=O)Nc2ccccc2Cl)cc1 | inconclusive [inhibitor, single point]
2 | O=C(C1CC1)N1N=C(c2ccc(Cl)cc2)CC1(O)C(F)(F)F (configuration not stated) | inconclusive [inhibitor, single point]
3 | COc1ccc2c(c1)c1c(c(=O)n(-c3cccc(Cl)c3)c(=O)n1C)n2C | inactive
4 | COC(=O)C1(Cc2cc(-c3ccc(Cl)cc3)no2)CCN(C(=O)OC(C)(C)C)CC1 | inconclusive [inhibitor, single point]
5 | Cc1cc(C)nc(-n2nc(C)cc2NC(=O)CN2CCC(C)CC2)n1 | inconclusive [inhibitor, full curve, poor fit]
6 | CC1Cc2ccccc2N1C(=O)CN1CCC(n2nnc3cc(C(F)(F)F)ccc32)CC1 (configuration not stated) | inconclusive [inhibitor, partial curve, poor fit]
7 | COc1ccccc1N1CCN(C(=O)C2c3ccccc3Oc3ccccc32)CC1 | inconclusive [inhibitor, full curve, poor fit]
8 | Cc1ccc2c(CC(=O)NCC3(N4CCOCC4)CCCCC3)coc2c1C | inconclusive [inhibitor, single point]
9 | CN(C)c1ccc(/C=C/C(=O)c2ccc(O)cc2)cc1 | inactive
10 | COc1ccc(CNC(=O)c2cnc(N3CCCC3)nc2C)cc1 | inactive
11 | CCCCc1nn2c(=O)cc(COC(=O)c3ccccc3NC(=O)C3CCCCC3)nc2s1 | inactive
12 | CCOC(=O)c1c(-c2ccccc2)oc2ccc(NS(=O)(=O)c3ccccc3)cc12 | inconclusive [inhibitor, single point]
13 | COc1ccc(S(=O)(=O)NCc2cccn2Cc2cccc(C)c2)cc1OC | inconclusive [inhibitor, single point]
14 | NS(=O)(=O)c1ccc(N=Nc2ccc(O)c3ncccc23)cc1 | inactive
15 | CS(=O)(=O)c1nc(S(=O)(=O)c2ccc(Cl)cc2)c(N2CCC3(CC2)OCCO3)s1 | inconclusive [inhibitor, single point]
16 | Cc1ccc(C2NC(c3ccc(C)cc3)C(C)C(=O)C2C)cc1 (configuration not stated) | inconclusive [inhibitor, single point]
17 | O=C(c1c(Cl)nc2sccn12)N1CCN(c2cccc(Cl)c2)CC1 | inconclusive [inhibitor, full curve]
18 | CCOc1ccc(NC(=O)c2cc3c(=O)n4cccc(C)c4nc3s2)cc1 | inactive
19 | Cc1ccc(O)c(Sc2cc(C)ccc2O)c1 | inconclusive [inhibitor, partial curve, poor fit]
20 | CCCn1c(CCC(=O)Nc2ccccc2Cc2ccccc2)nc2cc(S(=O)(=O)N3CCOCC3)ccc21 | inconclusive [inhibitor, single point]
21 | O=C(NCC1CCN(Cc2cccc(Cl)c2)CC1)Nc1ccc(Cl)cc1 | inconclusive [inhibitor, single point]

Row | Structure (SMILES) | Potency
22 | CC1(C)CCCN(C(=O)N2c3ccccc3Sc3ccccc32)C1 | active: 4.47 µM
23 | CC1CC(C)CN(C(=O)CSc2nnc(-c3ccc(Cl)s3)o2)C1 (configuration not stated) | inconclusive [inhibitor, single point]
24 | O=C1[C@H]2[C@@H](c3ccc(Cl)cc3)N3C(=O)N(c4cccc(Br)c4)C(=O)[C@@]3(Cc3ccc(Cl)cc3)[C@H]2C(=O)N1C1CCCCC1 | inconclusive [inhibitor, full curve, poor fit]
25 | Cc1ccc(NC(=O)Cn2c(=O)n(Cc3ccc4c(c3)OCO4)c(=O)c3ccc(C(=O)NC4CCCCC4)cc32)cc1 | inactive
26 | O=C(/C=C/c1ccccc1)NCCC1=CCCCC1 | inconclusive [inhibitor, single point]
27 | CCCCN1CCc2c([nH]c3c(C)cccc23)C1=O | inconclusive [inhibitor, single point]
28 | Cc1cccnc1C(NC(=O)C1CCN(CCCOc2ccc(F)cc2)CC1)c1ccccc1 (configuration not stated) | inconclusive [inhibitor, single point]
29 | COc1ccc(NC(=O)NC(C)C2CC3CCC2C3)cc1 (configuration not stated) | inconclusive [inhibitor, partial curve, poor fit]
30 | O=C(CSc1nccn1-c1ccc(Cl)cc1)N1CCCc2ccccc21 | inconclusive [inhibitor, partial curve, poor fit]
31 | Cc1nc(-c2ccccc2)ccc1C(=O)O | inactive
32 | CN(C(=O)COC(=O)c1cccc(S(=O)(=O)N(C)c2ccccc2)c1)C1CCCCC1 | inconclusive [inhibitor, partial curve, poor fit]
33 | O=C(N/N=C/c1ccc(OC(F)F)cc1)C1=COCCO1 | inconclusive [inhibitor, single point]
34 | O=S(=O)(c1cccc(F)c1)N1CCN(Cc2ccc3c(c2)OCO3)CC1 | inactive
35 | CC(=O)NCCC1CCN(c2nc3nonc3nc2N(C)Cc2ccccc2)CC1 | inactive
36 | CCC(C(=O)NCCc1c[nH]c2cc(OC)ccc12)c1ccccc1 (configuration not stated) | inconclusive [inhibitor, partial curve, poor fit]
37 | COC(=O)c1ccc(NC(=S)NC2CC(C)(C)NC(C)(C)C2)cc1 | active: 8.91 µM
38 | COc1ccc(N2CCN(C(=O)Cn3cnc4sc(C)c(S(=O)(=O)N5CCC(C)CC5)c4c3=O)CC2)cc1 | inactive
39 | O=C(Nc1cccc(S(=O)(=O)N2CCOCC2)c1)C1CCCN(C(=O)c2ccc(Cl)cc2)C1 (configuration not stated) | inconclusive [inhibitor, partial curve, poor fit]
40 | Cc1ccccc1-c1nc(CN2CCCC2c2ccc(F)cc2)c(C)o1 (configuration not stated) | inconclusive [inhibitor, single point]
41 | c1c2c(cc3sc(N4CCCCC4)nc13)OCCO2 | inconclusive [inhibitor, partial curve, poor fit]
42 | CC(C)(C)NC(=O)CN(Cc1cccs1)C(=O)CCN1CCc2ccccc21 | inconclusive [inhibitor, partial curve, poor fit]
